Here are results for 88 compounds from publication PMC4336329 (PLoS ONE, 2015).

Each structure is given as a SMILES string. Out of some 310,000 compounds screened, about 2,200 (0.71%) showed an effect of 50% or more. The effect is printed as a negative number. This is one part of the list.

The target in this assay is human ether-à-go-go-related gene (hERG) potassium channel (human, UniProt Q12809). Nature of the assay: primary screen, population patch clamp on CHO cells stably expressing hERG.
human ether-à-go-go-related gene (hERG) potassium channel, sequence (Q12809 whole entry, looked up): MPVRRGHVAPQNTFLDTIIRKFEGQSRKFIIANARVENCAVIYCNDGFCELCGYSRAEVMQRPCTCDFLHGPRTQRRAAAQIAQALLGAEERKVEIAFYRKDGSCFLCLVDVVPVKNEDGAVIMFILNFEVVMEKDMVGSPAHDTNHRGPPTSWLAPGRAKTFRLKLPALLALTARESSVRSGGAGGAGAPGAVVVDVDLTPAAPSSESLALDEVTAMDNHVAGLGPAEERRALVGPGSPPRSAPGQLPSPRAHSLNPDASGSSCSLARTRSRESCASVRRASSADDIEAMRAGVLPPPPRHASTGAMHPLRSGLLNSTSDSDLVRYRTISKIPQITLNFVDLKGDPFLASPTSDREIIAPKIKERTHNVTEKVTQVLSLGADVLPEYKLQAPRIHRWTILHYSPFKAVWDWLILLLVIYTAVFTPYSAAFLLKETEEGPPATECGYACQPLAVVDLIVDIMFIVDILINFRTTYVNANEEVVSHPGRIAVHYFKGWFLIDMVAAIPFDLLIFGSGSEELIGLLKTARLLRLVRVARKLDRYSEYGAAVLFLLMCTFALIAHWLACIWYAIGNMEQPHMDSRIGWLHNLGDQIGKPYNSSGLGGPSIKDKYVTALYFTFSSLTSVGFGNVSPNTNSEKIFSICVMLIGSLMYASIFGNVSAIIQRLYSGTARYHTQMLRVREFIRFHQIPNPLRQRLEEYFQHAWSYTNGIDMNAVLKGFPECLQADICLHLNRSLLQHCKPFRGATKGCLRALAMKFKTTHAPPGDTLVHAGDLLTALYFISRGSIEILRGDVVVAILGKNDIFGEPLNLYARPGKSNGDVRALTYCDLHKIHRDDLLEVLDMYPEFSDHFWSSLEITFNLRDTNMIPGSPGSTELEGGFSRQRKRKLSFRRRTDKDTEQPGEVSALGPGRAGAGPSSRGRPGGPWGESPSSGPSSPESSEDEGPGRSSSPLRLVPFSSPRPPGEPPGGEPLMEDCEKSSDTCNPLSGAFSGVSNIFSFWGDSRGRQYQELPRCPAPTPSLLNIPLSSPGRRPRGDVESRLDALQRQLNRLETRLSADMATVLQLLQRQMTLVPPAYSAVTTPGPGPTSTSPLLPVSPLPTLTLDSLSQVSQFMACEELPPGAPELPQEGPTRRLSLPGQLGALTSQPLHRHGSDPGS
`OCC(Cc1ccccc1)NCc1ccccc1C(F)(F)F` (stereo not shown): the “hERG current change (%, negative = inhibition) at 1uM” value is reported as 4.8%.
As to `O=C(NCCc1ccc(Cl)cc1)C1CCC(=O)N1C1CCCC1` (stereo not shown), the “hERG current change (%, negative = inhibition) at 1uM” value is on record as 11%.
The figure for `COC(=O)Oc1ccc(/C=N/NC(=O)CN(c2ccccc2Cl)S(C)(=O)=O)cc1OC` is 9.16%; for `CC1CCN(C(=O)CCc2nnc3ccc(NCCCN4CCCC4=O)nn23)CC1` it is 15.8%; for `Cc1[nH]c2ccc(-c3n[nH]c(=S)n3-c3ccc(Br)cc3)cc2c1C` it is 11.8%.
`Cc1ccc(OCC(=O)N(Cc2ccccc2)c2ccccn2)cc1`: the “hERG current change (%, negative = inhibition) at 1uM” value was 9.13%.
As to `NS(=O)(=O)c1ccc(N/C=C\C(=O)c2cccc3ccccc23)cc1`, the “hERG current change (%, negative = inhibition) at 1uM” value came out at 9.15%.
To `COC(=O)c1ccc(C23CC4(C2)[C@H](CN(CC2CCCCC2)[C@@H]4c2ccccc2)C3c2ccccc2)cc1` (stereo partly shown) belongs 4.37%; to `CC(=O)c1ccc(NC(=O)C2CCCN2S(=O)(=O)c2cccc3cccnc23)cc1` (stereo not shown), 12.5%.
As for `CC1C2CC(C(S(=O)(=O)N3CCOCC3)C2=O)C1(C)C` (stereo not shown), the “hERG current change (%, negative = inhibition) at 1uM” value stood at 2.62%.
With `Cc1ccc(NC(=O)Nc2ccc3c(c2)nc(C)n3C)cc1C`, the “hERG current change (%, negative = inhibition) at 1uM” value is on record as 6.3%.
The figure for `O=C1Nc2ccccc2/C1=C/c1cnc[nH]1` is 0.222%.
`CCOC(=O)N1CCN(c2c(NCCN3CCN(c4ccccc4F)CC3)c(=O)c2=O)CC1`: the “hERG current change (%, negative = inhibition) at 1uM” value is reported as 2.73%.
To `O=C(N/N=C\c1coc2ccccc2c1=O)c1ccco1` belongs 12.6%.
As to `Cc1cccc(N2CCN(C(=O)c3cccc(NC4=NC5CS(=O)(=O)CC5S4)c3)CC2)c1C` (stereo not shown), the “hERG current change (%, negative = inhibition) at 1uM” value is given as 9.26%.
The figure for `COc1ccc(-c2ccnc(SCC(=O)c3ccc(Cl)cc3)n2)cc1` is 9.76%; for `Cc1cc(C2N=C(N)Nc3nc4ccccc4n32)c(C)n1-c1ccccc1Cl` (stereo not shown) it is 11%; for `O=[N+]([O-])c1ccc(O)c(/C=N/n2cnnc2)c1` it is 1.21%.
To `CC1C=Cc2ccccc2N1C(=O)c1ccccc1` (stereo not shown) belongs -10.3%.
To `COc1ccccc1/C=C1\SC(=S)N(NS(=O)(=O)c2ccc(C)cc2)C1=O` belongs 5.73%.
Turning to `Cc1ccc(-c2nnc(NC(=O)c3ccc([N+](=O)[O-])o3)o2)c(C)c1`, the “hERG current change (%, negative = inhibition) at 1uM” value was 16.5%.
`COc1ccc(S(=O)(=O)Nc2cccc(-c3ccc4nncn4n3)c2)cc1F`: the “hERG current change (%, negative = inhibition) at 1uM” value is 6.93%.
Take `CCC(=O)NC(c1cc(Cl)c2ccccc2c1O)C(C)C` (stereo not shown): the “hERG current change (%, negative = inhibition) at 1uM” value is -0.749%.
The figure for `NC(=O)CSc1n[nH]c(-c2ccco2)n1` is 14.9%; for `CC(C)CC(=O)Nc1ccc(Cc2ccncc2)cc1` it is 13.1%; for `N#Cc1ccc(OCC(=O)N/N=C(\CCC(=O)O)c2cccs2)cc1` it is 9.05%.
Turning to `COc1ccc(OCC(=O)Nn2c(-c3ccc(C)cc3)nc3ccccc3c2=O)cc1`, the “hERG current change (%, negative = inhibition) at 1uM” value worked out at 12%.
With `Cc1ccc(C(=O)Oc2ccc(N3C(=O)CCC3=O)c(C)c2)cc1`, the “hERG current change (%, negative = inhibition) at 1uM” value was 8.05%.
Consider `CCCC/C(C)=N\NC(=O)CNS(=O)(=O)c1ccc([N+](=O)[O-])cc1`, for which the “hERG current change (%, negative = inhibition) at 1uM” value is reported as -0.163%.
To `CCN(CC)Cc1nc2c(c(=O)[nH]1)C1(CCCC1)Cc1ccccc1-2` belongs -2.55%; to `CCOc1ccc(S(=O)(=O)Nc2ccccn2)c2ccccc12`, 10.9%.
Turning to `CC(=O)c1cccc(CN2CCC(CO)(CCOc3ccccc3)CC2)c1`, the “hERG current change (%, negative = inhibition) at 1uM” value was -3.07%.
Consider `C=CCNC(=S)N(Cc1ccccc1)Cc1ccc(F)cc1`, for which the “hERG current change (%, negative = inhibition) at 1uM” value stood at 7.88%.
For `COc1ccccc1N(CC(=O)NCc1ccco1)S(=O)(=O)c1ccc(C)cc1`, the “hERG current change (%, negative = inhibition) at 1uM” value was 13.5%.
With `COc1ccccc1C1(CCNC(C)c2cccs2)CCOC(C(C)C)C1` (stereo not shown), the “hERG current change (%, negative = inhibition) at 1uM” value amounted to 8.27%.
Consider `COc1ccc(C(=O)Nc2cccc(NC(=O)c3ccc(OC)cc3OC)n2)c(OC)c1`, for which the “hERG current change (%, negative = inhibition) at 1uM” value was found to be 18.4%.
Take `CCC(=O)N/N=C(\C)CC(=O)Nc1cc(Cl)ccc1C`: the “hERG current change (%, negative = inhibition) at 1uM” value worked out at 3.18%.
The figure for `COc1ccc(-c2c(C)nc(N)nc2-c2ccc(OCc3ccc(C)cc3)cc2O)cc1OC` is 9.05%.
Turning to `c1ccc(-c2cc(NCCN3CCCCC3)c3ccccc3n2)cc1`, the “hERG current change (%, negative = inhibition) at 1uM” value is recorded as 16.4%.
To `COCCN1CCn2c(nc3cc(NC(=O)c4cccs4)ccc32)C1` belongs 0.263%; to `CN(CC(=O)Nc1ccc(Cl)c(C(F)(F)F)c1)C(=O)C1CCCO1` (stereo not shown), 12.6%; to `Cc1c(C(=O)O)oc2ccc(S(=O)(=O)N3CC(C)CC(C)C3)cc12` (stereo not shown), 8.01%.
For `COc1cccc(C2C(C(=O)c3sc(C)nc3C)=C(O)C(=O)N2CCN2CCOCC2)c1` (stereo not shown), the “hERG current change (%, negative = inhibition) at 1uM” value is reported as 8.92%.
Take `Cc1ccc(C2C(C(=O)c3cccs3)=C(O)C(=O)N2c2nnc(C)s2)cc1` (stereo not shown): the “hERG current change (%, negative = inhibition) at 1uM” value came out at 11.2%.
`Cc1cc(O)c(CN(C)C)c2c1C(=O)/C(=C/c1ccco1)O2`: the “hERG current change (%, negative = inhibition) at 1uM” value was found to be 10.4%.
The figure for `COc1cccc(-c2nnc(SC(C(=O)c3c[nH]c4ccccc34)c3ccccc3)n2C)c1` (stereo not shown) is 17.4%.
The figure for `CC(C)(C)c1ccc(-n2ncc3c2CCCC3NC(=O)C2=NNC(=O)CC2)cc1` (stereo not shown) is -5.06%; for `Cc1cccc(OCCCC(=O)Nc2ccc(S(N)(=O)=O)cc2)c1` it is 13.7%.
For `O=C(Nc1ccc2ccccc2n1)c1ccc(Cl)cc1`, the “hERG current change (%, negative = inhibition) at 1uM” value was determined as 13.5%.
To `O=C1CC(c2ccccc2)n2nc(N3C(=O)c4ccccc4C3=O)nc2N1` (stereo not shown) belongs -3.45%.
To `CCC1SC2=NCCN2C1(O)c1ccc(Cl)cc1` (stereo not shown) belongs -1.76%; to `COC(=O)Nc1ccc(S(=O)(=O)N2CCCC(C(=O)N3CCCCCC3)C2)cc1` (stereo not shown), 13.3%; to `CC(C)(C)NC(=O)NC(=O)C[n+]1ccc(Cc2ccc([N+](=O)[O-])cc2)cc1.[Cl-]`, 10.3%.
To `O=C1NC2(CCOc3ccccc32)C(=O)N1CC(=O)N(Cc1ccccc1)C1CCS(=O)(=O)C1` (stereo not shown) belongs 10.9%; to `Cc1csc(=Nc2cccnc2)n1CC1CCCCC1`, 12.7%.
`CSc1c(CN2CCN(C)CC2)c2ccccc2n1C.Cl`: the “hERG current change (%, negative = inhibition) at 1uM” value was 10.2%.
In the case of `Cc1sc(NC(=O)CN2CCOCC2)nc1-c1ccc2c(c1)CCN2S(=O)(=O)c1ccccc1`, the “hERG current change (%, negative = inhibition) at 1uM” value is 4.82%.
Regarding `CN1C(=O)c2cccc3c(S(=O)(=O)Nc4ccc(O)c(C(=O)O)c4)ccc1c23`, the “hERG current change (%, negative = inhibition) at 1uM” value is given as 11.9%.
To `N#Cc1cccc(C#N)c1NCC1CCCO1` (stereo not shown) belongs 18.2%.
To `Cc1onc(-c2ccccc2)c1C(=O)NNC(=S)NC(=O)/C=C/c1ccccc1` belongs 14.6%; to `O=S1(=O)C[C@H]2NC(=S)N(c3ccccc3)[C@H]2C1`, 4.83%; to `CN1CCN(C(=O)c2ccc3c(c2)N(Cc2ccc(Cl)cc2)C(=O)c2ccccc2S3=O)CC1` (stereo not shown), 9.42%.
The figure for `Cc1cc(C)c(OCCN(C)C)c(Cl)c1.O=C(O)C(=O)O` is 6.3%; for `Cc1cc(O)cc(C)c1Cl` it is 1.16%; for `CC(=O)[C@@H]1[C@@H](C)N(Cc2ccccc2)C(=O)N[C@H]1c1ccccc1` it is 15.9%.
As for `CS(=O)(=O)c1ccc2nc(NC(=O)c3ccc(Cl)nc3)sc2c1`, the “hERG current change (%, negative = inhibition) at 1uM” value was determined as 15%.
For the compound `COc1ccccc1-n1c(SCC(=O)Nc2nnc(C)s2)nc2c(c1=O)SCC2`, the “hERG current change (%, negative = inhibition) at 1uM” value is given as 7.63%.
The figure for `Cc1csc2nc(O)c(C(=O)NCc3ccc4c(c3)OCO4)c(=O)n12` is 11.9%; for `COc1ccc(CNC(=O)COC(=O)c2n[nH]c3ccccc23)cc1` it is 12.1%.
With `CC(C)C(=O)N1CCN(S(=O)(=O)c2ccc3ccccc3c2)CC1`, the “hERG current change (%, negative = inhibition) at 1uM” value amounted to 7.43%.
The figure for `Cc1cccc(C(=O)Nc2cccnc2Cl)c1` is 9.65%; for `COC(=O)c1ccc(Cn2nc([N+](=O)[O-])c(Br)c2C)cc1` it is 3.9%; for `O=C(COc1ccc(CO)cc1Cl)Nc1ccc(F)cc1` it is 16.6%.
The figure for `COc1ccc(CN(C(=O)c2oc3cc(C)c(C)cc3c2C)C2CCS(=O)(=O)C2)cc1OC` (stereo not shown) is 12%.
To `CC1=CCC(COC(=O)Nc2ccccc2)CC1` (stereo not shown) belongs 11.6%.
Regarding `CCOC(=O)N1CCN(C(=O)CSc2nc3c([nH]c4ccccc43)c(=O)n2CC)CC1`, the “hERG current change (%, negative = inhibition) at 1uM” value was 9.05%.
To `CC(C)CC(=O)N/N=C/c1c(N)n(C)c(=O)n(C)c1=O` belongs 19%; to `O=C(Nc1ccc(Cl)cc1)N1CCOCC1`, 12.5%; to `Cc1nn(CC(C)C)c(Cl)c1C(=O)NC1CCC(C)CC1` (stereo not shown), -8.07%.
Consider `COC(=O)C(O)(c1ccc2c(c1)CCCN2)C(F)(F)F` (stereo not shown), for which the “hERG current change (%, negative = inhibition) at 1uM” value was determined as 13%.
Turning to `Cn1c(=O)c2c(ncn2CC(=O)Nc2ccc3c(c2)OCO3)n(C)c1=O`, the “hERG current change (%, negative = inhibition) at 1uM” value came out at 6.84%.
As for `Cc1ccccc1S(=O)(=O)Cc1ccc(C(=O)NCCN(Cc2ccccc2)C(C)C)o1`, the “hERG current change (%, negative = inhibition) at 1uM” value is reported as -20.9%.
To `Cc1ccsc1-c1nc(CSCC(=O)NCc2ccc3c(c2)OCO3)c(C)o1` belongs -1.88%; to `Cl.OCCCCNCc1cc(Br)ccc1OCc1ccccc1`, -7.34%.
The figure for `O=C(Nc1ccc(F)cc1)N1CCCN(c2nccc(C(F)(F)F)n2)CC1` is 6.72%.
To `CN(c1cccc(Cl)c1)S(=O)(=O)c1cccc(C(=O)Nc2ccc3c(c2)CCC3)c1` belongs 3.4%; to `CC1(C)C(=O)C2(C(=O)NCc3ccccc3)CCC1C2` (stereo not shown), 14.7%.
`CC(Cn1nnc2ccccc21)C(=O)O` (stereo not shown): the “hERG current change (%, negative = inhibition) at 1uM” value is on record as 8.59%.
